About 40 (0.04%) of roughly 110,000 compounds were called active. The inconclusive results got no clear call from the source; some entries with a clear call stand among them for comparison. Calls follow the shape of the dose curve; as a rule, active = well fitted curve in the direction sought with a large enough effect in the signal ratio (not every such curve was filed as active); inconclusive = small, poorly fitted or top-dose-only effect, or a change in a side signal; inactive = flat fitted curve, though single readings scatter; the % refers to the signal ratio. A potency beside an inconclusive call is a rough fit, not a confirmed value.
assay: IkB Signaling; conditions: ABC-DLBCL IkBa-CBG/CBR dual luciferase ratio (green luciferase fused to IkBa over red control in OCI-Ly3 lymphoma cells), 4 h; IkBa stabilization activation: at 57.1 µM (top of the series), scaled: untreated 0%, proteasome inhibitor 100% unless noted;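 as to IkBa stabilization activation: 0% = basal untreated cells and 100% = reference inhibitor full response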
In short: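 Luminescence ratio of IκBα-fused green versus native red beetle luciferase in OCI-Ly3 cells, 4 h post-doxycycline with compound; red signal alone, scaled from basal (0%) to zero light (-100%), flagged nonspecific or cytotoxic effects.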
Potency is read from the fitted curve at half-maximal effect.

SMILES | IkBa stabilization activation | Potency
CCOc1ccccc1NC(=O)CSc1c2c(nc3ccc(Cl)cc13)CCCC2 | inconclusive: 7.53% [signal inhibitor] | 
CCc1c(-c2ccccc2)nc2ccccc2c1C(=O)NC(C)c1ccccc1 (stereo not drawn) | inconclusive: -3.43% [signal inhibitor] | 
CCOC(=O)C1CCCN(S(=O)(=O)c2cc(-c3onc(C)c3C)ccc2OC)C1 (stereo not drawn) | inconclusive: 4.02% [signal inhibitor] | 
CC(C)(C)C(=O)[C@@H]1[C@@H]2C(=O)N(c3ccc4c(c3)OCCO4)C(=O)[C@@H]2C2c3ccccc3C=CN21 (stereo partly drawn) |  | inconclusive: 31.6 µM [signal inhibitor, single point]
CCOc1ccccc1NC(=O)c1nc(S(=O)(=O)Cc2cccc(C)c2)ncc1Cl | inconclusive: -3.35% [signal inhibitor] | 
CC1CCc2onc(C(=O)Nc3ccc(Cl)cc3)c2C1 (stereo not drawn) | inconclusive: 2.05% [signal inhibitor] | 
COc1cccc(-c2nc(-c3ccc(Br)o3)no2)c1 | inactive: 3.93% | 
COc1ccc(-c2cc(CCCC(=O)NCCc3cc(OC)ccc3OC)no2)cc1 | inconclusive: 1.3% [signal inhibitor] | 
CCOc1ccccc1N1CCN(C(=O)Nc2ccc(F)c(Cl)c2)CC1 | inconclusive: 1.96% [signal inhibitor] | 
Cc1nc2c(c(C)c1CCC(=O)NCc1ccc(F)cc1)c(=O)n(C)c(=O)n2C | inconclusive: 0.614% [signal inhibitor] | 
Fc1ccccc1Nc1c2c(nc3ccccc13)CCC2 | inconclusive: 0.291% [signal inhibitor] | 
CCN(Cc1ccncc1)S(=O)(=O)c1ccc(C(C)=O)cc1 | inconclusive: 7.58% [signal inhibitor] | 
COc1ccc(OC)c2c(C)cc(N3CCN(C(=O)c4ccc(F)cc4)CC3)nc12 | inactive: 4.74% | 
COc1cccc2cc(C(=O)N3CCN(c4cc(C)ccc4C)CC3)c(=O)oc12 | inconclusive: 3.33% [signal inhibitor] | 
CN1CCN(CCCBr)CC1 | inactive: 0.425% [at 11.4 µM, scaled: untreated 0%, proteasome inhibitor 100%] | 
C[C@H](OP(=O)(O)O)[C@H](N)C(=O)O | inactive: 0.371% [at 11.4 µM, scaled: untreated 0%, proteasome inhibitor 100%] | 
CCc1ccccc1NC(=O)CN(C)S(=O)(=O)c1cccc2nsnc12 | inactive: -3.03% | 
COc1ccc(-c2ccc(NS(=O)(=O)c3ccc(NC(C)=O)cc3)cc2)nn1 | inconclusive: 0.51% [signal inhibitor] | 
COc1ccc(OC)c(NC(=O)c2c(NCc3cccs3)sc3c2CCCCC3)c1 | inconclusive: 2.27% [signal inhibitor] | 
CCN(CC)c1ccc(NC(=O)c2c(C)nn(-c3ccc(F)cc3)c2-n2cccc2)c(C)c1 | inconclusive: 0.786% [signal inhibitor] | 
COc1cccc(CN(C(=O)COc2ccc(Cl)c(C)c2)C2CCS(=O)(=O)C2)c1 (stereo not drawn) | inconclusive: 15.4% [signal inhibitor] | 
N#CCCn1c(=O)c(CCc2ccccc2)nc2cnc(OCc3ccccc3)nc21 | inactive: 3.63% [at 11.4 µM, scaled: untreated 0%, proteasome inhibitor 100%] | 
Cc1ccc(Sc2ccc(N3CCC(C(=O)Nc4cc(C)cc(C)c4)CC3)nn2)cc1 | inconclusive: 0.15% [signal inhibitor] | 

SMILES | IkBa stabilization activation | Potency
Cc1ccc(C2CC(=O)n3nc(-c4ccc(Cl)cc4)nc3S2)cc1 (stereo not drawn) | inconclusive: 0.717% [signal inhibitor] | 
Cc1c(Cl)cccc1-n1ncc(C(=O)NCCN2CCN(C)CC2)c1C1CCN(C(=O)OC(C)(C)C)CC1 | inconclusive: -0.36% [signal inhibitor] | 
O=C(Nc1ccc(Cl)cc1)c1cnn2c1NC(c1ccccc1)=CC2c1ccccc1 (stereo not drawn) | inconclusive: 3.82% [signal inhibitor] | 
CCOC(=O)c1scc(-c2ccccc2)c1S(=O)(=O)N1CCN(c2ccc(Cl)cc2)CC1 | inconclusive: -1.21% [signal inhibitor] | 
Cc1ccc(NC(=O)c2ccc(NC(=O)N3CCSc4ncccc43)cc2)c(Cl)c1 | inactive: 1.22% | 
Cc1ccc(S(=O)(=O)NC2OC(=O)C(Cl)=C2Cl)cc1 (stereo not drawn) |  | inconclusive: 39.8 µM [rising, single point]
O=C(CSc1ccc(Cl)cc1)Nc1ccc(N2CCN(C(=O)c3ccco3)CC2)cc1 | inconclusive: 9.06% [signal inhibitor] | 
Cc1ccc2c(c1)[C@H]1OCC[C@H]1[C@@H](c1ccncc1)N2 | inactive: -2.62% | 
c1ccc2oc(SCc3cn4ccccc4n3)nc2c1 | inconclusive: 8.02% [signal inhibitor] | 
COc1cccc(CN2C(=O)c3ccccc3Sc3ccc(C(=O)NCc4ccccc4)cc32)c1 | inactive: 0.566% | 
CCCCNC(=O)c1ccc2c(c1)N(CC)C(=O)c1ccccc1S2(=O)=O | inactive: -1.7% | 
COc1cccc(N2CCN(C(=O)c3cnc4c(-c5ccccc5)c(C)nn4c3C)CC2)c1 | inconclusive: 1.82% [signal inhibitor] | 
Cc1ccccc1NC(=O)NCCc1c[nH]c2ccccc12 |  | inconclusive: 25.1 µM [signal inhibitor, partial curve]
COc1ccc(S(=O)(=O)Cc2ccc(C(=O)N3CCN(c4ccc(Cl)cc4)CC3)o2)cc1 | inconclusive: -1.88% [signal inhibitor] | 
O=C1CC(c2cccs2)Sc2nc3ccccc3n21 (stereo not drawn) | inconclusive: 6.65% [signal inhibitor] | 
Cc1ccccc1Nc1ncnc2c1cnn2-c1ccccc1 | inconclusive: 0.334% [signal inhibitor] | 
COC(=O)c1cc(NS(=O)(=O)c2ccc3c(c2)OCCO3)ccc1Cl | inconclusive: 0.995% [signal inhibitor] | 
CS(=O)c1nc(-c2ccc(Br)cc2)cc(-c2ccccc2)c1C#N (stereo not drawn) | inconclusive: 0.754% [signal inhibitor] | 
O=C(Nc1nc(-c2cccs2)cs1)c1ccc(S(=O)(=O)N2CCCC2)cc1 | inconclusive: -0.201% [signal inhibitor] | 
CCOc1ccccc1NC(=O)CSc1nc2ccccc2nc1N1CCOCC1 | inconclusive: 11.8% [signal inhibitor] | 
COc1ccc(NC(=O)c2cc(Cl)ccc2NC(=O)c2ccco2)c(OC)c1 | inconclusive: 4.78% [signal inhibitor] | 
COc1ccc(-c2noc(N3CCC(C(=O)Nc4cccc(C)c4C)CC3)n2)cc1 | inconclusive: -0.114% [signal inhibitor] | 
COc1ccc(CCNC(=O)c2ccc3c(c2)CCN3S(=O)(=O)c2ccccc2)cc1 | inactive: -0.541% | 

SMILES | IkBa stabilization activation | Potency
CCOc1cc(CNC(=O)c2cc(-c3ccccc3)n[nH]2)cc(OCC)c1OCC | inconclusive: 2.03% [signal inhibitor] | 
COc1ccc(CCNC(=O)c2cnn(-c3ccc(F)cc3)c2C2CCN(C(=O)OC(C)(C)C)CC2)cc1OC | inconclusive: -0.622% [signal inhibitor] | 
CCOc1cc(C(c2c(C)[nH]n(-c3ccccc3)c2=O)c2c(C)[nH]n(-c3ccccc3)c2=O)ccc1O |  | inconclusive: 31.6 µM [rising, single point]
CC(C)OC(=O)CSc1nnc(-c2ccc(Cl)cc2Cl)o1 | inconclusive: 2.82% [signal inhibitor] | 
COC(=O)C1CCN(C(c2cc(OC)c(OC)c(OC)c2)c2sc3nc(C)nn3c2O)CC1 (stereo not drawn) | inactive: -1.79% | 
CC(Oc1ccccc1)C(=O)Nc1ccc(C(=O)OCc2cc(=O)n3nc(C(C)C)sc3n2)cc1 (stereo not drawn) | inconclusive: 3.15% [signal inhibitor] | 
COC(=O)c1ccccc1NC(=O)CN(C)S(=O)(=O)c1ccc(OC)c(C)c1 | inconclusive: 1% [signal inhibitor] | 
CCNc1cc(=O)n(C)c(=O)n1C | inactive: 0.594% | 
COc1ccc(C(=O)Nc2ccc(-c3nc4ncccc4o3)cc2C)cc1Br | inconclusive: 2.85% [signal inhibitor] | 
CCn1c(=O)c2cc(C(=O)Nc3cccc(C(F)(F)F)c3)sc2c2ccccc21 | inconclusive: 0.948% [signal inhibitor] | 
COc1ccc(NC(=O)c2c(NCc3ccc(C)o3)sc3c2CCCCC3)c(OC)c1 | inconclusive: 7.13% [signal inhibitor] | 
Cc1nc2cc(NC(=O)NCCC3=CCCCC3)ccc2o1 | inconclusive: 0.902% [signal inhibitor] | 
CCOC(=O)C1CCCN(C2CC(=O)N(c3cccc(C(F)(F)F)c3)C2=O)C1 (stereo not drawn) | inconclusive: 8.19% [signal inhibitor] | 
COc1ccc(-n2c(/C=C/c3cccc4ccccc34)nc3ccccc3c2=O)cc1OC | inconclusive: 2.93% [signal inhibitor] | 
NC(=O)Nc1nc2ccccc2[nH]1 | inactive: -1.33% | 
COc1ccc(N2C(N)=C(C#N)C(c3cccnc3)C3=C2CC(C)(C)CC3=O)cc1 (stereo not drawn) | inconclusive: 14.3% | 
Cc1ccc(CNC(=O)CSCc2ccccc2C)cc1 | inactive: -4.07% | 
CCn1cc(C(=O)NCCc2ccc(Cl)cc2)c(=O)c2cc(S(=O)(=O)N(C)C3CCCCC3)ccc21 | inconclusive: 4.38% [signal inhibitor] | 
Cc1cc(C(=O)Nc2cccc(O)c2)c(C)o1 | inactive: 14.7% | 
COc1ccc(Cn2c(C(=O)O)c(CNCc3ccc(OC)cc3OC)c3ccc(C)cc32)cc1 | inconclusive: 0.00158% [signal inhibitor] | 
CCc1ccc2oc(-c3cc(N=Cc4cccc(OC)c4O)ccc3O)nc2c1 | inconclusive: 5.19% [signal inhibitor] | 
COc1ccc(CCCc2nnc(SCC(=O)Nc3cc(F)ccc3C)o2)cc1 | inconclusive: 10.4% [signal inhibitor] | 
